From patent publication US20060135770A1, “PARP inhibitors” (Kudos Pharmaceuticals Ltd., priority 2004, published 2006)

Biological target: Mammalian PARP, isolated from Hela cell nuclear extract (Homo sapiens, UniProt P09874)
Experiment: PARP inhibition FlashPlate assay (3H-NAD incorporation, scintillation counting)
Type: biochemical
Settings: PARP enzyme activity; NAD 5 μM; 30° C.; read-out: IC50
Description: In order to assess the inhibitory action of the compounds, the following assay was used to determine IC50 values or percentage inhibition at a given concentration.
The total assay volume per well was 40 μl.
After 10 minutes incubation at 30° C. the reactions were initiated by the addition of a 10 μl reaction mixture, containing NAD (5 μM), ^3H-NAD and 30mer double stranded DNA-oligos. Designated positive and negative reaction wells were done in combination with compound wells (unknowns) in order to calculate % enzyme activities. The plates were then shaken for 2 minutes and incubated at 30° C. for 45 minutes.
Following the incubation, the reactions were quenched by the addition of 50 μl 30% acetic acid to each well. The plates were then shaken for 1 hour at room temperature.
The plates were transferred to a TopCount NXT (TRADE MARK) (Packard, UK) for scintillation counting. Values recorded are counts per minute (cpm) following a 30 second counting of each well.
The % enzyme activity for each compound is then calculated using the following equation: [formula] […] Such IC50 values are used as comparative values to identify increased compound potencies.

IC50, < 100 nM:
NC(=O)c1cc(F)ccc1OCc1ccc(F)c(C(=O)N2CCN(C(=O)Nc3ccc(C(F)(F)F)cc3)CC2)c1 [Compound 206]
NC(=O)c1cc(F)ccc1OCc1ccc(F)c(C(=O)N2CCN(C(=O)NC34CC5CC(CC(C5)C3)C4)CC2)c1 [Compound 207]
NC(=O)c1cc(F)ccc1OCc1ccc(F)c(C(=O)N2CCN(C(=O)Nc3ccc(F)cc3)CC2)c1 [Compound 208]
Cc1ccccc1NC(=O)N1CCN(C(=O)c2cc(COc3ccc(F)cc3C(N)=O)ccc2F)CC1 [Compound 209]
Cc1cc(C)cc(NC(=O)N2CCN(C(=O)c3cc(COc4ccc(F)cc4C(N)=O)ccc3F)CC2)c1 [Compound 210]
NC(=O)c1cc(F)ccc1OCc1ccc(F)c(C(=O)N2CCN(C(=O)Nc3ccccc3-c3ccccc3)CC2)c1 [Compound 211]
N#Cc1cccc(NC(=O)N2CCN(C(=O)c3cc(COc4ccc(F)cc4C(N)=O)ccc3F)CC2)c1 [Compound 212]
CCCCCCCCNC(=O)N1CCN(C(=O)c2cc(COc3ccc(F)cc3C(N)=O)ccc2F)CC1 [Compound 213]
NC(=O)c1cc(F)ccc1OCc1ccc(F)c(C(=O)N2CCN(C(=O)Nc3ccccc3F)CC2)c1 [Compound 214]
NC(=O)c1cc(F)ccc1OCc1ccc(F)c(C(=O)N2CCN(C(=O)C3CCCCC3)CC2)c1 [Compound 217]
